Laboratory results published in ChEMBL document CHEMBL4888484, “Replenishing the malaria drug discovery pipeline: Screening and hit evaluation of the MMV Hit Generation Library 1 (HGL1) against asexual blood stage Plasmodium falciparum ,using a nano luciferase reporter read-out” (2022).
Where “and” joins values, the source holds several entries; their conditions need not be identical. Identical values can stand only once. In all, about 150,000 compounds went through this assay and about 540 (0.36%) showed an effect of 50% or more. Some of the results follow.

Tested on: Plasmodium falciparum
Test: Primary screen in NF54 nanoGlo assay, in single point, at 2uM, 72h; a lower Z score goes with more inhibition
Type: functional, Erythrocyte
Details: timepoint 72 hour

| SMILES | % Inhibition [%] | Z score | % Inhibition (2 µM) |
| --- | --- | --- | --- |
| Cc1ccc(S(=O)(=O)CCN2C(=O)c3ccccc3C2=O)cc1 | -8 | 0.95 |  |
| Cc1nsc(NC(=O)N2CCCCC23CC3)n1 | -5 | 0.96 |  |
| CNC(=O)[C@@H]1CN(Cc2cccc3[nH]ccc23)CCO1 | 25 | -2.81 |  |
| N[C@H]1CCN(c2ccc(Oc3ccccc3)cc2)C1 |  |  | -14% and -2% |
| Cc1c(C#N)nn(-c2ccccc2)c1NC(=O)COC[C@H]1CCCO1 | -1 | 0.1 |  |
| COc1ccc(OCCN2CC(n3cccn3)C2)cc1 | -11 | 1.22 |  |
| Cc1nsc2ncc(C(=O)N3CCCCC3)c(N3CCC(C(=O)Nc4ccc(OC(F)(F)F)cc4)CC3)c12 | 13 | -2.16 |  |
| CCCCn1nccc1NC(=O)N[C@@H](C)C1CCOCC1 | 3 | -0.52 |  |
| CCOc1ccc(CN2C[C@@H]3CC[C@H]2CN(Cc2cscn2)C3)cc1 | -3 | 0.53 |  |
| CCOC[C@@]12CCN(C(C)=O)C[C@@H]1CN(S(=O)(=O)c1cc(F)cc(F)c1)C2 | -5 | 1 |  |
| C[C@H]1CCCN(C(=O)c2c(NC(=O)c3cccnc3)sc3c2CCCC3)CC1 | -8 | 1.05 |  |
| Cc1cc2ncc3c(n2n1)CCN(C(=O)Nc1ccccc1F)C3 | -2 | 0.25 |  |
| CCCCCOCC(=O)N1CC2(CCOC(=O)N2)C1 | 8 | -1.51 |  |
| O=C(CN1CCN(c2ccccc2)C1=O)N1CC[C@H](Oc2cnccn2)C1 | -2 | 0.28 |  |
| O=c1sc(-c2ccccc2)cn1Cc1nccn1C(F)F | -11 | 1.28 |  |
| CS(=O)(=O)Nc1nc(CCN2C(=O)c3ccccc3C2=O)cs1 | -9 | 1.21 |  |
| Cn1cnc2cc(C(=O)N3CCc4ccncc43)ccc21 | -12 | 2.36 |  |
| N#C[C@@H](NC(=O)CC(F)(F)F)c1ccc(F)cc1F | -11 | 1.1 |  |
| COCc1noc(CNC(=O)C2(COC)CCC2)n1 | 0 | -0.07 |  |
| CN(C)[C@H]1CCCCN(Cc2cc3c(cc2Cl)OCO3)C1 | -12 | 2.14 |  |
| Cc1noc(C)c1CC(=O)Nc1cccc(Oc2cccnn2)c1 | -13 | 1.83 |  |
| Cc1nc(-c2cccs2)sc1C(=O)Nc1ccc2c(c1)OCO2 | -2 | 0.35 |  |

| SMILES | % Inhibition [%] | Z score | % Inhibition (2 µM) |
| --- | --- | --- | --- |
| O=C(C#Cc1ccccc1)N1CCC(C2(Cc3ccc(F)cc3)NC(=O)N(C3CCOC3)C2=O)CC1 (centres undefined) | 6 | -0.77 |  |
| COCCN(C)CC(=O)N1CCC2(CCCCCC2)C1 | -17 | 2.39 |  |
| Cc1csc(CN(C)CCCn2cccn2)n1 | 3 | -0.47 |  |
| O=C(NCc1ccc2c(c1)OCO2)N1CCOCC1CC(O)c1ccccc1 (centres undefined) | -12 | 1.16 |  |
| CC(NC(=O)C1CC(=O)N(Cc2cccc(C(F)(F)F)c2)C1)c1nnc2n1CCC2 (centres undefined) | -7 | 0.64 |  |
| Cc1ccc(OC2CCN(C(=O)c3ccccc3C(F)(F)F)CC2)nn1 | -11 | 2.14 |  |
| CN(CC(F)(F)F)C(=O)CNC(=O)c1cc(F)cc(Cl)c1O | 39 | -4.36 |  |
| O=C(Nc1nc(Cc2ccccc2)ns1)c1cc(F)c(O)c(F)c1 | 7 | -1.28 |  |
| COc1ccccc1CS(=O)(=O)CC(=O)NC1CCCCCCC1 | 32 | -3.26 |  |
| CCN1CCCN(c2ccc(C(=O)Nc3ccccc3)nn2)CC1 | 5 | -0.68 |  |
| COc1cccc(-c2ncc[nH]2)c1OCCN1CCOCC1 | 2 | -0.25 |  |
| COCCC1(c2noc(-c3cccnc3)n2)CCN(CCCc2ccccc2)CC1 | 11 | -1.4 |  |
| Cc1cccc(C(=O)N(Cc2ccccn2)c2ccc(Cl)cc2)n1 | -12 | 1.36 |  |
| Cn1cc(-c2nc([C@@H]3CCCCCN3C(=O)c3cccc(C#N)c3)no2)cn1 | -14 | 1.44 |  |
| COc1ccccc1N1CCN(C(=O)C2CCN(S(=O)(=O)c3ccc(-c4ccn[nH]4)o3)CC2)CC1 | -10 | 1.48 |  |
| CCc1ccccc1NC(=O)c1cccnc1-c1ccc(C)s1 | 1 | -0.18 |  |
| CC(C)c1cc(C(=O)N2C[C@@H](CN3CCCN(C)CC3)[C@@H](CO)C2)cs1 | -14 | 1.32 |  |
| COc1ccc(N2C(=O)[C@H](CC(=O)N3CCc4cc(OC)c(OC)cc4C3)N=C2O)cc1 | -7 | 0.95 |  |
| CC(C)N(CC1CN(Cc2cccc(F)c2)CC1c1ccc(F)cc1)C(=O)c1ccc(F)cc1 (centres undefined) | 4 | -0.62 |  |
| C=C(C)COc1c(CN[C@@H](CO)c2ccccc2)cccc1OC | 4 | -0.67 |  |
| O=C(CCC1CCCC1)N1CCC(n2cnc3cc(C(F)(F)F)ccc32)CC1 | -9 | 1.02 |  |
| Cc1cnn(CC2CCCN2C(C(N)=O)c2ccccc2)c1 (centres undefined) | -1 | 0.23 |  |

| SMILES | % Inhibition [%] | Z score | % Inhibition (2 µM) |
| --- | --- | --- | --- |
| O=S(=O)(Cc1ccccc1)N1CCC(c2noc(COCc3ccccc3)n2)CC1 | -5 | 0.69 |  |
| O=C1NCCN(Cc2nc3c(s2)CCCC3)C12CCCC2 | -14 | 2.05 |  |
| Cc1ccc(Cn2cccc2C(=O)C(=O)N(C)c2ccc(C)cc2)cc1 | -6 | 0.59 |  |
| COc1ccc(S(=O)(=O)NC2CCOC(C(C)C)C2)cc1Cl (centres undefined) | -1 | 0.08 |  |
| CC(C)Cc1nc(CCc2ccncc2)n(CC(C)(C)O)n1 | -8 | 1.48 |  |
| C[C@@H](CN(C)c1ccnc(N(C)C)n1)C(=O)O | -9 | 1.17 |  |
| Cc1n[nH]cc1CN[C@@H](COc1ccccc1)c1ccccc1 | 2 | -0.26 |  |
| CCc1nn(C)cc1CN1CCOc2ccccc21 | 0 | -0.03 |  |
| O=C(NCCCc1ccccc1)c1ccc(CN2C(=O)NC3(CCOCC3)C2=O)cc1 | -25 | 2.85 |  |
| Cc1nnc(N2CCC(C(=O)NCc3cccc(F)c3)CC2)c2c(C)n(Cc3ccccc3)c(C)c12 | 0 | -0.01 |  |
| FC(F)(F)c1cnc(N2CC[C@H](N3CCOCC3)C2)s1 | -2 | 0.23 |  |
| CCOc1c(CNCCN(C)C)cccc1OC | 6 | -0.76 |  |
| CCN(CC)CCS(=O)(=O)Nc1nc(OC)cc(OC)n1 | -3 | 0.46 |  |
| Cn1ccnc1C(=O)[C@@H](C#N)C(=O)c1cc2cc(F)ccc2o1 | -5 | 0.58 |  |
| N#Cc1cccc(C(=O)Nc2nc(-c3ccc4c(c3)CCCC4)cs2)c1 | 3 | -0.27 |  |
| OCC1(COc2ccccc2-c2nncn2-c2ccccc2)COC1 | 0 | 0.06 |  |
| N#Cc1nccnc1NC1CCOC1c1ccccc1 (centres undefined) | -7 | 1.06 |  |
| OCC[C@H]1CN(Cc2nc3c(s2)CCCC3)CCN1Cc1cccs1 | 11 | -1.4 |  |
| O=C1OC2(CCN(CC[C@H]3CCOC3)CC2)CN1CCc1ccccc1 | -16 | 3.11 |  |
| CC1=NO[C@](C)(C(=O)N2CCN(C(=O)c3ccccc3)CC2)C1 | -8 | 1.28 |  |
| COc1ccc(CN(C(=O)Cc2c(C)n[nH]c2C)C2CCCC2)c(OC)c1 | -4 | 0.73 |  |
| O=C(NC[C@]1(CO)COCCN1Cc1ccccc1)c1nccc2ccsc12 | -4 | 0.41 |  |

| SMILES | % Inhibition [%] | Z score | % Inhibition (2 µM) |
| --- | --- | --- | --- |
| CC(C)(C)NC(=O)C[C@H]1COCCN1S(=O)(=O)N1CCc2ccccc2C1 | -3 | 0.54 |  |
| Cc1[nH]c(=O)c(C#N)c(C)c1CCC(=O)NS(=O)(=O)C1CCCCC1 | -9 | 1.43 |  |
| Nc1nc2c(c(N[C@H]3Cc4ccccc4[C@@H]3N)n1)CCCC2 | 9 | -1.81 |  |
| O=C(c1ccccc1)c1c(Cl)cccc1NS(=O)(=O)Cc1ccccc1 | 0 | -0.05 |  |
| O=C(NC1CC1c1cccc(F)c1)c1cccn1C1CC1 (centres undefined) | -2 | 0.32 |  |
| Cc1nc(Cn2cccc2C(=O)Nc2cccnc2)no1 | -17 | 2.41 |  |
| Cc1ccc(N2CCC(c3nnc(CN4CCN(C)CC4)n3C)CC2)nn1 | -14 | 2.6 |  |
| Cn1cccc1C(=O)NCCCn1cn[nH]c1=O | 16 | -2.1 |  |
| CN1CCCC[C@@H]1CNC(=O)Nc1cc(F)cc(Cl)c1 | -11 | 1.89 |  |
| Cc1ccc(C)c(S(=O)(=O)N2CCC(N3CCN(Cc4ccc(F)cc4)C(=O)C3=O)CC2)c1 | -4 | 0.56 |  |
| CCCN(CC1CC1)C(=O)c1nn(CC2CC2)c2c1COCC2 | -1 | 0.09 |  |
| Cn1c(CN2CC(CO)(c3ccccc3)C2)nc2ccc(Cl)cc21 | 6 | -1.17 |  |
| C[C@H]1CCCN(CN2C(=O)C3(OCCO3)c3ccccc32)C1 | -13 | 2.18 |  |
| Cc1noc(C)c1Cc1n[nH]c(=O)n1CCc1ccccc1F | -13 | 1.45 |  |
| Cc1cnc(-c2ccccc2CN(C)C)nc1N(C)C | -3 | 0.46 |  |
| O=C(c1ccc[n+]([O-])c1)N1CCO[C@@H](CC(c2ccccc2)c2ccccc2)C1 | -8 | 1.02 |  |
| COCC(=O)NC1CN(S(=O)(=O)C2C[C@@H]3CC[C@H]2C3)C1 (some centres undefined) | -4 | 0.55 |  |
| COc1ccc(CCNC(=O)CS(=O)(=O)c2ccc(Cl)cc2)cc1OC | 3 | -0.51 |  |
| Cc1cc(NC(=O)[C@@H]2CCn3c(C(=O)c4ccccc4)ccc32)ccc1Br | 29 | -3.3 |  |
